Source: PubChem BioAssay AID588591 (National Center for Advancing Translational Sciences (NCATS), 2011)
The campaign covered roughly 390,000 compounds. About 4,700 (1.2%) were called active. This list was built around the results that the source calls inconclusive (neither active nor inactive); the mix of calls is not that of the screen. Calls follow the shape of the dose curve; as a rule, active = well fitted inhibition curve with a large enough effect; inconclusive = small, poorly fitted or top-dose-only effect, or another doubt; inactive = no such curve, though single readings can be large or run the other way. Potencies of inconclusive entries are doubtful fits and often do not repeat.

Target: DNA polymerase eta (Homo sapiens) (UniProt Q9Y253)
Test: qHTS for Inhibitors of Polymerase Eta
Details: recombinant Pol eta, fluorescent DNA replication assay; series mostly up to 114 µM
Procedure, shortened: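 Pol eta (10 nM) was preincubated with compounds for 15 min at room temperature, after which fluorescent replication substrate (50 nM final) was added to start the reaction. Fluorescence was read kinetically at 0 and 10 min.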
Potency is read from the fitted curve at half-maximal effect; tags tell the direction and shape of the fitted curve.

UniProt Q9Y253, sequence (Q9Y253 whole entry, looked up): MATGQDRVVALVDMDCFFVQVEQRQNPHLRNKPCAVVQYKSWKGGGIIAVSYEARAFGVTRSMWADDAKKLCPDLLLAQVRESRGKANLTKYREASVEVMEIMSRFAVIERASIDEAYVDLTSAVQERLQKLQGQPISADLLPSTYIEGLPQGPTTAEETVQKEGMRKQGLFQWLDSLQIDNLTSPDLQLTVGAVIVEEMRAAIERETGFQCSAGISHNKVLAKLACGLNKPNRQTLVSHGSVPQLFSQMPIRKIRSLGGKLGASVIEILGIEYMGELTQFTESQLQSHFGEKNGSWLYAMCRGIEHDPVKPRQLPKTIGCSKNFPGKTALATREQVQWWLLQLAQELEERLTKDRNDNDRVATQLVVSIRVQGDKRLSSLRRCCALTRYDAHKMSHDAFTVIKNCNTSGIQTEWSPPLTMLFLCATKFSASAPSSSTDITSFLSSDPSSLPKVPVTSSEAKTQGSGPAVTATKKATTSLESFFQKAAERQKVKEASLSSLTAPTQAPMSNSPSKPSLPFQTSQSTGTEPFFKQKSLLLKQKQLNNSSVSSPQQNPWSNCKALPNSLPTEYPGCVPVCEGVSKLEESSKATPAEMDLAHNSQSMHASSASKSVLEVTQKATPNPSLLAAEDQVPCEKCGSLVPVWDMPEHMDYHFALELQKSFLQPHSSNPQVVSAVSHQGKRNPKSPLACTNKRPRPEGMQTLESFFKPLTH

**Q.** With `CCC(CC)=NNC(=O)c1ccccc1OCc1ccc(F)cc1` as the compound, how does the Potency read?
**A.** inconclusive: 100 µM [inhibitor, partial curve, poor fit]

**Q.** How did the Potency turn out when `CC(=O)c1oc2ccccc2c1NC(=O)COC(=O)c1ccc(-n2nc(C)cc2C)cc1` was run?
**A.** inconclusive: 17.8 µM [inhibitor, partial curve, poor fit]

**Q.** For `CCN(CC)C(=O)c1ccc(COc2ccc(Cl)c(C)c2)o1`, which Potency is on record?
**A.** inactive

**Q.** With `O=C(O)c1ccc2c(=O)[nH]c(CN3CCOCC3)nc2c1` as the compound, how does the Potency read?
**A.** inactive

**Q.** Which Potency does the source give for `CNC(=O)c1c(NC(=O)CCS(=O)(=O)c2ccccc2)sc2c1CCN(C(=O)OC)C2` here?
**A.** inconclusive: 39.8 µM [inhibitor, partial curve, poor fit]

**Q.** For `CCC(CO)Nc1ncnc2c1cnn2-c1ccc(C)cc1` (centres undefined), which Potency is on record?
**A.** inactive

**Q.** `Cc1ccc(S(=O)(=O)NC(CC(=O)NCc2ccco2)c2ccco2)cc1` (centres undefined) was tested. Which Potency did it give?
**A.** inconclusive: 31.6 µM [inhibitor, single point]

**Q.** With `COc1ccccc1NC(=O)C1CCN(S(=O)(=O)c2ccc3c(c2)oc(=O)n3C)CC1` as the compound, how does the Potency read?
**A.** inactive

**Q.** For `COc1ccc(OC)c(NC(=O)COC(=O)c2ccc(-n3cnnn3)cc2)c1`, which Potency is on record?
**A.** inconclusive: 11.2 µM [inhibitor, partial curve, poor fit]

**Q.** How did the Potency turn out when `COC(=O)c1ccc(C23CC4(C2)[C@H](CN(C)[C@@H]4c2ccccc2)C3c2ccc(C(F)(F)F)cc2)cc1` (some centres undefined) was run?
**A.** inconclusive: 79.4 µM [inhibitor, partial curve, poor fit]

**Q.** Which Potency does the source give for `Cc1ccc(C)c(S(=O)(=O)NCC(c2ccco2)S(=O)(=O)c2ccc(F)cc2)c1` (centres undefined) here?
**A.** inactive

**Q.** For `O=C(O)CC(C(=O)NC1CCCCC1)C1CCCO1` (centres undefined), which Potency is on record?
**A.** inconclusive: 14.1 µM [inhibitor, partial curve]

**Q.** `O=C(N/N=C/c1ccc(-c2ccccc2C(=O)O)o1)c1cccs1` was tested. Which Potency did it give?
**A.** active: 17.8 µM

**Q.** `O=C(NCC(c1cccs1)N1CCOCC1)c1cc2ccccc2oc1=O` (centres undefined) was tested. Which Potency did it give?
**A.** inactive

**Q.** With `O=C(Cc1cccs1)Nc1nnc(SCc2ccc(Br)cc2)s1` as the compound, how does the Potency read?
**A.** inconclusive: 8.91 µM [inhibitor, full curve, poor fit]

**Q.** With `O=C1/C(=C\c2cccc(O)c2O)SC(=S)N1Cc1ccccc1` as the compound, how does the Potency read?
**A.** inconclusive: 28.2 µM [inhibitor, partial curve, poor fit]

**Q.** With `CC(NCc1ccc(N(C)C)cc1)C1CC2CCC1C2` (centres undefined) as the compound, how does the Potency read?
**A.** inconclusive: 22.4 µM [inhibitor, single point]

**Q.** With `COc1ccc(CNC(=O)Cn2ncn3nc(-c4cccs4)cc3c2=O)cc1` as the compound, how does the Potency read?
**A.** inconclusive: 89.1 µM [inhibitor, partial curve]

**Q.** Which Potency does the source give for `N#C/C(=C/c1ccc(-c2ccc(C(=O)O)c(Cl)c2)o1)C(=O)NCC1CCCO1` (centres undefined) here?
**A.** active: 10 µM

**Q.** With `O=C(NCc1ccncc1)C(=O)NCC1OCCN1S(=O)(=O)c1ccccc1` (centres undefined) as the compound, how does the Potency read?
**A.** inactive

**Q.** How did the Potency turn out when `O=C(Nc1ccc2oc(-c3cccnc3)nc2c1)c1ccc(-c2ccccc2)o1` was run?
**A.** inconclusive: 79.4 µM [inhibitor, partial curve, poor fit]

**Q.** How did the Potency turn out when `O=C(Nc1ccccc1NC(=O)c1c(F)cccc1F)c1c(F)cccc1F` was run?
**A.** inconclusive: 39.8 µM [inhibitor, single point]

**Q.** `Cc1ccc(S(=O)c2ccc([N+](=O)[O-])c3nonc23)cc1` (centres undefined) was tested. Which Potency did it give?
**A.** active: 14.1 µM

**Q.** With `Cn1ccc2c(OCC(=O)NCc3ccccc3Cl)cccc2c1=O` as the compound, how does the Potency read?
**A.** inconclusive: 100 µM [inhibitor, partial curve, poor fit]

**Q.** `O=C(O)c1ccc2nc(-c3cc4cc(F)ccc4oc3=O)[nH]c2c1` was tested. Which Potency did it give?
**A.** active: 35.5 µM

**Q.** With `CC(C)C[C@H](NC(=O)Nc1cccc(Cl)c1)C(=O)O` as the compound, how does the Potency read?
**A.** inconclusive: 31.6 µM [inhibitor, single point]

**Q.** Which Potency does the source give for `O=C(O)C(CCCCNS(=O)(=O)c1ccc(F)cc1)NS(=O)(=O)c1ccc(F)cc1` (centres undefined) here?
**A.** inconclusive: 89.1 µM [inhibitor, partial curve, poor fit]

**Q.** With `Cc1ccc(CN2CCN(C3CCN(S(=O)(=O)c4ccc(C)cc4)CC3)C(=O)C2=O)cc1` as the compound, how does the Potency read?
**A.** inactive

**Q.** `CC(=O)Nc1ccc(S(=O)(=O)NCCSCc2ccco2)cc1` was tested. Which Potency did it give?
**A.** inconclusive: 89.1 µM [inhibitor, partial curve, poor fit]

**Q.** How did the Potency turn out when `CCCCC[C@H](O)/C=C/C1C(=O)C=C[C@H]1C/C=C\CCCC(=O)OC` (some centres undefined) was run?
**A.** inconclusive: 63.1 µM [inhibitor, partial curve, poor fit]

**Q.** Which Potency does the source give for `N=c1c(C(=O)NCc2ccc(F)cc2)cc2c(=O)n3ccccc3nc2n1Cc1cccnc1` here?
**A.** inconclusive: 25.1 µM [inhibitor, partial curve, poor fit]

**Q.** Which Potency does the source give for `N#C/C(=C\c1c[nH]c2ccccc12)C(=O)c1ccc(O)c(O)c1` here?
**A.** active: 1.41 µM

**Q.** For `Cc1ccc(NC(=O)C(C)OC(=O)c2ccc(NC(=O)CC#N)cc2)cc1S(=O)(=O)N1CCOCC1` (centres undefined), which Potency is on record?
**A.** inconclusive: 28.2 µM [inhibitor, single point]

**Q.** How did the Potency turn out when `O=C(NCc1ccccc1)c1ccc2nc(-c3ccco3)c(-c3ccco3)nc2c1` was run?
**A.** active: 2.51 µM

**Q.** For `NC(=S)n1[nH]c(-c2ccc([N+](=O)[O-])cc2)c(N=Nc2ccc(Cl)cc2)c1=O`, which Potency is on record?
**A.** inconclusive: 56.2 µM [inhibitor, partial curve, poor fit]

**Q.** `O=C(NC1CCCCC1)c1cnn2c(C(F)(F)F)cc(-c3ccco3)nc12` was tested. Which Potency did it give?
**A.** inconclusive: 44.7 µM [inhibitor, partial curve]

**Q.** `CC(C)Cc1cc(C(=O)Nc2ccc(Br)cc2)no1` was tested. Which Potency did it give?
**A.** inconclusive: 89.1 µM [inhibitor, single point]

**Q.** Which Potency does the source give for `CC(=O)NC(=C(Cl)Cl)S(=O)(=O)c1ccccc1` here?
**A.** inconclusive: 89.1 µM [inhibitor, single point]

**Q.** With `CC(C)c1ccc(NS(=O)(=O)c2ccc3[nH]cc(C(=O)N4CCCC4)c(=O)c3c2)cc1` as the compound, how does the Potency read?
**A.** inconclusive: 56.2 µM [inhibitor, partial curve, poor fit]

**Q.** With `COc1cc(-c2nc3ccccn3c2/N=C/c2cc(OC)c(OC)c(OC)c2)ccc1O` as the compound, how does the Potency read?
**A.** inconclusive: 2.51 µM [inhibitor, partial curve, poor fit]

**Q.** How did the Potency turn out when `COc1ccc(C(=O)Nc2cccc(NC(=O)c3ccc(OC)c(OC)c3)n2)cc1OC` was run?
**A.** inactive

**Q.** With `O=c1c2ccccc2ncn1-c1ccc(Cl)cc1Cl` as the compound, how does the Potency read?
**A.** inactive

**Q.** With `COc1cc(S(=O)(=O)N2CCCCC2)ccc1NC(=O)Cc1ccccc1` as the compound, how does the Potency read?
**A.** inconclusive: 3.16 µM [inhibitor, partial curve, poor fit]

**Q.** With `Cc1ccccc1NC(=S)NCCC(c1ccccc1)c1ccccc1` as the compound, how does the Potency read?
**A.** inconclusive: 79.4 µM [inhibitor, partial curve, poor fit]

**Q.** Which Potency does the source give for `Cc1ccc(/C=C/C(=O)O)cc1S(=O)(=O)Nc1ccccc1C(=O)O` here?
**A.** active: 44.7 µM

**Q.** `CCOc1ccc(N(Cc2cc3cc(C)ccc3[nH]c2=O)C(=O)c2cccc(Cl)c2)cc1` was tested. Which Potency did it give?
**A.** inactive

**Q.** With `CCOC(=O)C1=C(O)/C(=C/c2ccc(OCC(=O)O)c(OC)c2)SC1=Nc1ccc(OC)cc1` as the compound, how does the Potency read?
**A.** inconclusive: 31.6 µM [inhibitor, partial curve, poor fit]

**Q.** `CCc1ccc(NC(=O)C(CC)c2ccccc2)cc1` (centres undefined) was tested. Which Potency did it give?
**A.** inconclusive: 15.8 µM [inhibitor, partial curve, poor fit]

**Q.** With `C[C@H](NC(=O)c1nc[nH]c1C(=O)NCC(=O)OCc1ccccc1)C(=O)OC(C)(C)C` as the compound, how does the Potency read?
**A.** inconclusive: 89.1 µM [inhibitor, partial curve, poor fit]

**Q.** How did the Potency turn out when `O=C(COC(=O)c1ccccc1Oc1ccccc1)NCc1ccco1` was run?
**A.** active: 14.1 µM

**Q.** `CCOc1ccc(N(CC(=O)NC2CCCCC2)C(=O)CCC(=O)Nc2cc(C)ccn2)cc1` was tested. Which Potency did it give?
**A.** inconclusive: 89.1 µM [inhibitor, partial curve, poor fit]

**Q.** With `CCN(CC)S(=O)(=O)c1cc(NC(=O)Cn2ncc(Cl)c(Cl)c2=O)ccc1C` as the compound, how does the Potency read?
**A.** active: 35.5 µM

**Q.** How did the Potency turn out when `O=S(=O)(Nc1nc2cc3c(cc2nc1Cl)OCCO3)c1ccccc1` was run?
**A.** inconclusive: 39.8 µM [inhibitor, partial curve, poor fit]

**Q.** Which Potency does the source give for `O=C(N/N=C/c1cccc(OC2CSC2)c1)c1ccccc1O` here?
**A.** inconclusive: 28.2 µM [inhibitor, single point]

**Q.** With `CC(C)COc1cccc(-c2cc(C(=O)Nc3ccon3)c3ccccc3n2)c1` as the compound, how does the Potency read?
**A.** inconclusive: 63.1 µM [inhibitor, partial curve, poor fit]

**Q.** Which Potency does the source give for `CCN(CC)c1ccc(C(=O)NNC(=O)c2cccn2C)cc1` here?
**A.** inconclusive: 35.5 µM [inhibitor, full curve]

**Q.** With `COc1ccc(S(=O)(=O)N2CCC(C(=O)N3CCc4ccccc4C3)CC2)cc1OC` as the compound, how does the Potency read?
**A.** inconclusive: 39.8 µM [inhibitor, partial curve, poor fit]

**Q.** For `O=C1[C@@H]2[C@H]3CC[C@H](C3)[C@@H]2C(=O)N1O`, which Potency is on record?
**A.** inconclusive: 17.8 µM [inhibitor, partial curve, poor fit]

**Q.** Which Potency does the source give for `O=C(COc1ccc2ccccc2c1)NNC(=O)Nc1ccccc1F` here?
**A.** inconclusive: 35.5 µM [inhibitor, single point]

**Q.** Which Potency does the source give for `CC(C)CCN1C(=O)c2ccc(C(=O)Nc3ccccc3C(=O)O)cc2C1=O` here?
**A.** inactive

**Q.** With `Cc1cc(C)cc(Oc2nc(-c3ccccc3)cc(C)c2S(C)(=O)=O)c1` as the compound, how does the Potency read?
**A.** inconclusive: 28.2 µM [inhibitor, partial curve, poor fit]

**Q.** With `CC(C)CCC1(C)NC(=O)N(CC(=O)c2ccc[nH]2)C1=O` (centres undefined) as the compound, how does the Potency read?
**A.** inconclusive: 50.1 µM [inhibitor, partial curve, poor fit]

**Q.** Which Potency does the source give for `O=C(O)COc1ccccc1/C=N/NC(=O)COc1ccc(-c2ccccc2)cc1` here?
**A.** active: 50.1 µM

**Q.** With `O=C(Nc1nc(-c2ccco2)c(-c2ccco2)s1)c1ccc(F)cc1F` as the compound, how does the Potency read?
**A.** inconclusive: 31.6 µM [inhibitor, full curve, poor fit]
